According to the RNAGym collection of RNA variant scans (doi:10.7554/elife.90254):
Read counts are not given, so values of variants with three or more changes are uncertain.

B1: OR4K15 (parent)
chain: GUUAACGGUCAUAGGCCAUGGAAACUAGGAGCACCAUUUCGCUGCCAGUGAAGAAAUGAACAAAGAAAAUCUGGGCCAGGCAGGCAUCAAAAGAAAUAGUCUUGCGCUCAACCAGAAAGUCUGUAAUCAUUUUAAGGGUA

Variants of: B1
Assay: self-cleavage, relative activity (ratio to wild type); higher = more cleavage; in vitro, sequencing; the parent is a self-cleaving ribozyme

Variant | self-cleavage
A59G A63U U127A U131C | 2.95
U57A A59U U103A A116G U120C | 0.06
A59G A60G U122A | 1.52
G58A A62G A68G | 0.35
A59G U72A A82G U132C | 0.09
G58A A117G U130C A140U | 0.24
A56U A96C U100C | 1.67
A56G A90U A111G | 0
U57C A86G U124C A129G | 1.23
A59G A62G A129G | 1.57
A56G A92G A125U | 1.13
A59G A96G A118G | 0.63
A59G A78G A140G | 0.33
U57C A94G U122C | 0.57
U57C A62G A66G | 1.15
U57C A68G C101A A140G | 0.05
U57A C71A A116G | 0.18
G58A A116G U120C | 0.22
U57C U102A A125G | 0.06
A59G A60G U131C | 1.14
U57C A116G U122G | 0.17
A59G A62G U131C | 1.11
A59G U100A U108C A126G | 0
A56U A117G U133C | 2.92

Variant | self-cleavage
U57C A63G U120A U124C | 0.44
U57G A59G A90G U131A | 0.74
A59G A60G A62G | 1.17
U57C A82G U102C | 0.88
U57A U108C U120C | 0
U57C G84A A90U U97C C105U | 0.2
A56U C61U U132C | 1.46
U57C A60G A82U U103A | 0.23
A56G A96G A140G | 1.79
A56G U100C A129C | 2.03
A59G A82G A140U | 0.62
U57A A91G U108A A135G | 0
U57C A91G U139A | 0.94
A59G A94U A118U | 0.51
U57C A78G A118U | 0.06
A56U U57G A66G U102C A114G A117G | 0.28
A56U A92G U100C | 2.45
A59G A67G A86G | 0.83
A56G U57A A68U | 1.58
A59G A63U A66G U100C U131C A135G | 2.4
G58A U108C C113U | 0.02
A59G A90U A116G A117G | 0.11
A59G A78G A116U | 0.04
A56G A111G U131C | 0.01

Variant | self-cleavage
U57C A62G C112U A129G | 0.03
A59G A64G U70C G80A | 0.1
A59C A63G A91G | 0.65
U57G A90G A135G | 0.8
G58A A64G G73A | 0.18
U57C C61A G84U A86G | 0.34
U57A U100C C112G | 0.02
A59G A60G U102C | 1.62
U57C U87C A91G | 0.36
U57G A98G A118G | 0.15
A56U A91G U127C | 0.62
U57C A62U U103C U130C | 0.32
U57C A117G U122G U130C | 1.3
U57A G74U U97A | 0.24
A59G G74A A96G | 0.17
U57A A95G U103C A126G | 0.61
A56G U87C A110U A114U | 0.02
A56G A95G U130C | 1.56
A56G U108A A118G | 0.02
U57C A60G A82G | 0.15
A56U G84U A92G A117G | 0.63
U57C A98G U102C U124A A135G | 0.75
U57C A96G U108C | 0.06
U57C A68G A69G A135G | 0.36

Variant | self-cleavage
A59G A95G U122A A126G | 0.93
G58A A111G U132C | 0.02
A56G A118G C128U | 0.41
A59G A63G U108C A114G | 0
U57C A63G A68G U70A A126G | 0.13
A56G U57C A68G A89C | 1.01
A59G A68G U70C U72C U97C | 0.16
G58A A118G U139C | 0.51
U57C A64G A82G | 0.26
A59G U97C A98U A118G | 0.14
A59G G80A U87A U133C | 0.25
A59G A68U U120C U131C | 0.97
A56G A90G A91G U131C | 1.76
U57C C88U A110U | 0.43
A59G A86G A134U | 1.35
U57C A69G A91G | 0.45
A56G A96G A118G | 1.01
A59G C81G U102C A134G | 0.29
A56G U97A A140U | 1.15
U57C G99A U100C | 0.92
U57C A111G A117G U127C | 0
A56G U57C A60U A67C U120C | 0.34
A56G U57C A90G A95G | 1.52
G58U A67G U120C | 0.53

Variant | self-cleavage
U57C U72C A95G U108A U127C U139A | 0
A56G A95G U122C | 1.43
A59G C85U U102C U103C U108C | 0.01
A59G A92G U103C | 0.56
U57A A86G A96G U108C A111G | 0.02
A59G A92G A96U U124C | 1.48
U57C A59G U87C A90G U132A | 0.32
G58U A125G U132G | 0.3
U57C A69G C107A U132A | 0.01
A59G A92G A111G | 0.04
U57G U87C A89C A91G A126G | 0.33
U57C A59U U102G U103C | 0.02
A59G A66U A89G U103C | 0.07
A59G A64G A67G | 1.33
A56G G99A U108C A135G | 0.02
G58A U130C U133C | 0.53
A56G A96G A111G A140G | 0.03
A56G U97C C107A A118G | 0.01
U57C A59C A114G U132C A134G | 0
A59G G74U A96G U127C | 0.06
U57G A64G A86G U87A U124A U131C U132C | 0.56
A59G U87C A117G U130C U139A | 1.1
A56G A89G A90G A92G U100C | 1.36
A59G A60G A62U A126G | 0.35

Variant | self-cleavage
U57C A90G A118G | 0.28
U57A G106A U131C | 0.02
U57C U87C C101U U103G | 0.01
A56G U127C U130C U132C | 1.25
U57C U72C U102C U122A | 0.06
A59G A60U A117G U131C | 1.38
U57G U122C U132C | 0.91
A59G A69G U124C | 0.7
A59G A62G A111G | 0.01
G58A A59C U120C | 0.97
U57A A92G A116G | 0.24
U57A A67G U103C A116U U132A | 0.1
U57C A98U G104A | 0.09
U57C A66G U100C | 1.53
A56G A98G C105U A126U | 0.03
A56U A68U U70C A82G | 0.16
A56G G99A U120C U139C | 0
U57C A110G A117G A126G | 0
U57C A82U A111G | 0.03
U57A A60G A94G U122A | 0.78
A56G A94G U103C | 1.19
U57C A92G U131C A140G | 1.05
U57C A62C A89G A117G | 0.36
A56G U102C A111C A140G | 0

Variant | self-cleavage
G58A A69U A91G U103A | 0.5
G58U A59G A60G | 1.25
U57C U97C U100C | 1.64
A56G U57C G73A G80A A92G | 0.23
A56U A64U A69U U103C U108C | 0.02
A59G U87C A111G U139C | 0.03
U57C U87C U97C A98G | 1.92
A59G A89U A114G | 0.05
A56G U102C U120C | 1.36
A56G U57C A59U A86G A90G A114G | 0.08
A59G A117G A126C A140G | 1.15
A59G U100C A134G | 2.3
A59G A67G A94U A114G | 0.4
A59C A64G U100C | 2.59
U57C C112A U132C | 0.02
A59G A60C U122C | 1.42
U57C U72C A89G | 0.18
G58A A69G A89C | 0.83
A56G U70C U122C | 0.23
A59G A82G U100A | 0.1
A56G U57A A63G | 0.87
A59G A64G U87C | 0.95
U57C A68U A69G A118U | 0.34
